The values that follow come from paper PMC4336329 (PLoS ONE, 2015).

Among all 310,000 compounds or so, about 14,000 (4.5%) showed an effect of 50% or more. Effects have a minus sign here. The list shows a part of the results.
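Also: peak tail current of the secondary pulse compared with the same well before compound.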

Sequence of human ether-à-go-go-related gene (hERG) potassium channel (Q12809 whole entry, looked up): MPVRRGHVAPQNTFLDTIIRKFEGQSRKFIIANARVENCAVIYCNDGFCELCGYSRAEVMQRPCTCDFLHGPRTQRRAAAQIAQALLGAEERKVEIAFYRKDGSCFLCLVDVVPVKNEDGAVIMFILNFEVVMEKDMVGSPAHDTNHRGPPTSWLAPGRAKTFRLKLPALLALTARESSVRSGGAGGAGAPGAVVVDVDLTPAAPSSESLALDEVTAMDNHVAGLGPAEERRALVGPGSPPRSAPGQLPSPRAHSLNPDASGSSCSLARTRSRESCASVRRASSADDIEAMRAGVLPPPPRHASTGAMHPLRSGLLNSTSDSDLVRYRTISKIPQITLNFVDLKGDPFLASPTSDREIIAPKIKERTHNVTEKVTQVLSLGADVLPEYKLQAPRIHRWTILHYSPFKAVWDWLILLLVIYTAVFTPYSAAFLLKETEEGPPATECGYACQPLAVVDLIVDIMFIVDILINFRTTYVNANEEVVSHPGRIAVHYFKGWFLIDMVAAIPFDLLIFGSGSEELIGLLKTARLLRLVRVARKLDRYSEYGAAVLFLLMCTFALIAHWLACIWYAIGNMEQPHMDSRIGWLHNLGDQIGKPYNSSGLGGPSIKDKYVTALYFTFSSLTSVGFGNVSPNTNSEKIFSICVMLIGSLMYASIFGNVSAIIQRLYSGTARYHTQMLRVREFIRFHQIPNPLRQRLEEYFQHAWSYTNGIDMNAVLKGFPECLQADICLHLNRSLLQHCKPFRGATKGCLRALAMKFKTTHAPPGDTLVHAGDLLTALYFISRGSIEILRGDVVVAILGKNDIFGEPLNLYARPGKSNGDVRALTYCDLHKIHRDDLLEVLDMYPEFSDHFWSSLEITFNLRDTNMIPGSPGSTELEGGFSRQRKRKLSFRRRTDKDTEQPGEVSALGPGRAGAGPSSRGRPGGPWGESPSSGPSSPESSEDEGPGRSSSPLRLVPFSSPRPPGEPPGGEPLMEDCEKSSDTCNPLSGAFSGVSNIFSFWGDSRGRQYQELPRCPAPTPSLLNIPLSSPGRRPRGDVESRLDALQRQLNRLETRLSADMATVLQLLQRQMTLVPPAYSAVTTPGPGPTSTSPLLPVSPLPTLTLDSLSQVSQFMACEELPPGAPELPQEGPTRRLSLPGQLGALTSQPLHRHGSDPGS

The assay addresses human ether-à-go-go-related gene (hERG) potassium channel (human, UniProt Q12809). The assay can be described thus: primary screen, population patch clamp on CHO cells stably expressing hERG.
In the case of `COc1ccccc1NS(=O)(=O)c1ccc(O)c(C(=O)OCC(=O)c2ccc(Cl)cc2Cl)c1`, the “hERG current change (%, negative = inhibition) at 10uM” value is on record as 23.4%. Next, `N#C/C=C(/c1ccc(F)cc1)N1CCOCC1`: 15.5%; `CCCCC(=O)Oc1c(S(=O)(=O)c2ccccc2)c(C)nn1C(C)(C)C`: 5.46%; `CN(C(=O)COC(=O)CNC(=O)c1ccc2ccccc2c1)c1c(N)n(Cc2ccccc2)c(=O)[nH]c1=O`: -42.6%.

On to `CC(=O)N1CCN(c2ccc(NC(=O)C(C)Oc3ccc(Cl)cc3Cl)cc2)CC1` (stereo not drawn), for which the “hERG current change (%, negative = inhibition) at 10uM” value is reported as -39.6%. Next, `Cc1noc(C)c1S(=O)(=O)N1CCN(C(c2ccccc2)c2ccc(Cl)cc2)CC1` (stereo not drawn): -5.9%; `CN(C(=O)Cn1cc(C(F)(F)F)cc(Cl)c1=O)C1CCS(=O)(=O)C1` (stereo not drawn): 0.375%. Next, `Oc1c(Br)cc(Br)cc1CNn1cnnc1`: 21.5%. Take `Cc1cccc(N(Cc2ccccc2)C(=O)Cc2ccc(S(=O)(=O)N3CCOCC3)s2)c1`: the “hERG current change (%, negative = inhibition) at 10uM” value is on record as -29.1%. As for `Cc1ccc(NS(=O)(=O)c2cc([N+](=O)[O-])ccc2N/N=C/c2sc(N3CCOCC3)nc2-c2ccccc2)c(C)c1`, the “hERG current change (%, negative = inhibition) at 10uM” value amounted to 8.06%. Next, `Cc1noc(N)c1C1(O)C(=O)N(C(C)C)c2ccccc21` (stereo not drawn): 8.01%; `O=C(Nc1ccccn1)c1cc(-n2cnnc2)ccc1Cl`: -21.6%; `Cc1cc(C(=O)N2CCCC(C(=O)c3cc(F)ccc3F)C2)c(C)o1` (stereo not drawn): -4.31%. In the case of `CCC(C(=O)NC1CCCC1)N(C(=O)c1snc(C(N)=O)c1N)c1ccc2c(c1)OCCO2` (stereo not drawn), the “hERG current change (%, negative = inhibition) at 10uM” value worked out at 3.65%.

Take `Cc1cc2nc(-c3ccc(=O)[nH]c3)n(C)c2cc1C`: the “hERG current change (%, negative = inhibition) at 10uM” value stood at 10.4%. Consider `CCCN(C(=O)c1cn(C)c(=O)c2ccccc12)c1ccccc1C`, for which the “hERG current change (%, negative = inhibition) at 10uM” value is -5.38%. Next, `Cc1ccc(CNC(=O)C(=O)NCCC2CCCCN2S(=O)(=O)c2cccs2)cc1` (stereo not drawn): -1.28%; `CCCCOc1ccc(-c2nc(=S)[nH][nH]2)cc1`: -2.69%.

With `CC(=O)NCCC1CCN(C(=O)c2cc(COc3ccc(C)nc3)on2)CC1`, the “hERG current change (%, negative = inhibition) at 10uM” value is on record as 16.4%. Next, `CC(C)(C)C(=O)NC(=S)Nc1ccc(S(=O)(=O)Nc2nccs2)cc1`: 11.2%; `COC(=O)C1=C(c2cccc(C#N)c2)C[C@@H]2CC[C@H]1N2C(=O)NCCOc1ccc(OC)cc1`: -20.3%; `CS(=O)(=O)N(CC(=O)N1CCCCC1)Cc1ccccc1`: -1.07%.

Turning to `Cc1cc2nc(C)n(CCCNC(=O)Nc3cccc4ccccc34)c2cc1C`, the “hERG current change (%, negative = inhibition) at 10uM” value was -13.7%. Next, `CCCn1nc(C(=O)NNC(=O)CCOc2ccccc2OCC)c2ccccc2c1=O`: -21.8%; `O=C1OCc2cc(NS(=O)(=O)c3cccs3)ccc21`: 7.25%. For `COc1ccc(OC)c(S(=O)(=O)N2CCC(C(=O)N3CCc4ccccc4C3)CC2)c1`, the “hERG current change (%, negative = inhibition) at 10uM” value is recorded as -27.7%.

As for `Cc1ccc(S(=O)(=O)NCCC(C)C)cc1[N+](=O)[O-]`, the “hERG current change (%, negative = inhibition) at 10uM” value was -19.3%.

Turning to `NC(=O)Cc1ccc(C(=O)c2ccc(Cl)cc2)s1`, the “hERG current change (%, negative = inhibition) at 10uM” value is recorded as 11.4%. On to `COC(=O)C1=C(CS(=O)(=O)c2ccc(C)cc2)NC(=O)NC1c1ccc(OC)c(OC)c1` (stereo not drawn), for which the “hERG current change (%, negative = inhibition) at 10uM” value was 13.2%. Take `COc1ccc(OC)c2c(N)c(C#N)c(C(F)(F)C(F)(F)F)nc12`: the “hERG current change (%, negative = inhibition) at 10uM” value is reported as 12.8%.

Take `Cn1c(=O)c2c(nc(N3CCOCC3)n2CCc2ccccc2)n(C)c1=O`: the “hERG current change (%, negative = inhibition) at 10uM” value came to 34.9%. Consider `COc1ccc(OC)c(NC(=S)N2c3ccccc3CC2C)c1` (stereo not drawn), for which the “hERG current change (%, negative = inhibition) at 10uM” value is reported as -25.7%. Next, `COCCCNC(=O)CCCn1c(=O)c2ccccc2n(Cc2cccc([N+](=O)[O-])c2)c1=O`: -20.3%; `COCCCn1c(SCc2ccc(OC)cc2)nc2cc(OC)c(OC)cc2c1=N`: -0.472%. Next, `CCCc1cc(=O)n2nc(N3CCC(C(=O)NCc4ccc(C)o4)CC3)sc2n1`: -61.6%; `CCCCNC(=O)c1onc(CSc2cccc(C)c2)c1C(=O)O`: 9.56%.

On to `COc1ccc(C(=O)CCS(=O)(=O)c2ccc(F)cc2)cc1OC`, for which the “hERG current change (%, negative = inhibition) at 10uM” value was 6.41%.

With `OCC1(CC2CCCCO2)CCN(Cc2nc3ccccc3[nH]2)CC1` (stereo not drawn), the “hERG current change (%, negative = inhibition) at 10uM” value was found to be 18%.

For `CCOC(=O)C1(Cc2cccc(OC)c2)CCN(Cc2cccn2-c2ccccn2)CC1`, the “hERG current change (%, negative = inhibition) at 10uM” value is recorded as -74.8%. For the molecule `COc1cc(C2C(C#N)=C(N)Oc3c2ccc2ccccc32)ccc1OCC(=O)Nc1ccccc1C` (stereo not drawn), the “hERG current change (%, negative = inhibition) at 10uM” value is given as 22.1%.

Turning to `CN1c2ccccc2C(C)(C)C12CC(c1ccc(Cl)c(S(=O)(=O)N3CCCC3)c1)=NO2` (stereo not drawn), the “hERG current change (%, negative = inhibition) at 10uM” value worked out at 7.23%. Consider `O=C(Nc1cccc(S(=O)(=O)N2CCCCC2)c1)C1CC(=O)N(Cc2ccco2)C1` (stereo not drawn), for which the “hERG current change (%, negative = inhibition) at 10uM” value was determined as 7.39%.

Consider `CC(C)(C)OC(=O)NCCCC[C@@H](C(=O)NCCCCCCCCCCC(=O)N1CCN(C(=O)OC(C)(C)C)CC1)n1cc(CCO)nn1`, for which the “hERG current change (%, negative = inhibition) at 10uM” value is -1.16%. With `NC(=S)N/N=C/c1c[nH]c2ccc(OCc3ccccc3)cc12`, the “hERG current change (%, negative = inhibition) at 10uM” value was 6.65%. For `CCOc1ccc(S(=O)(=O)NNC(=O)c2cc3ccccc3o2)cc1`, the “hERG current change (%, negative = inhibition) at 10uM” value is on record as -20.6%. In the case of `O=C(NNC(=S)Nc1ccc(Cl)cc1Cl)C1CC1`, the “hERG current change (%, negative = inhibition) at 10uM” value was -24%.

With `CC1=C(C(=O)Nc2ccc(C)cc2C)C(c2ccc(C)o2)NC(=O)N1` (stereo not drawn), the “hERG current change (%, negative = inhibition) at 10uM” value came to 2.35%.

Regarding `COc1ccc(CCNC(=O)CC(c2ccccc2)c2cccc(C)c2O)cc1OC` (stereo not drawn), the “hERG current change (%, negative = inhibition) at 10uM” value is -3.11%.

As to `CCn1cc(C(=O)NCCCO)c(=O)c2cc(F)c(N3CCN(C)CC3)cc21.Cl`, the “hERG current change (%, negative = inhibition) at 10uM” value came out at 11%.

In the case of `CCN(CCn1cccn1)Cc1nc(Cc2cccc(F)c2)no1`, the “hERG current change (%, negative = inhibition) at 10uM” value was -7.22%.

As to `CCOC(=O)c1cc(C#N)c(SC)nc1-c1ccccc1`, the “hERG current change (%, negative = inhibition) at 10uM” value was -7.3%. Next, `O=C(CSc1nc2ccccc2s1)Nc1cc(S(=O)(=O)N2CCOCC2)ccc1O`: -11.6%; `Cc1cc(C)cc(NC(=O)Cc2ccc(S(=O)(=O)N3CCCC3)s2)c1`: -18.1%; `Cc1ccc(C(=O)Nc2cccc(C(=O)NCc3ccccc3)c2)cc1`: 5.21%. Next, `COCCCn1c(=S)[nH]c2ncccc2c1=O`: 4.06%.

Turning to `COc1ccc(Br)cc1CN1CCCC(C(=O)N2CCCCC2)C1.O=C(O)C(=O)O` (stereo not drawn), the “hERG current change (%, negative = inhibition) at 10uM” value is reported as -55.8%. Next, `CC1(C)Oc2ccc(C(=O)N3CCCCC3)cc2N(CC(=O)NCc2ccccc2)C1=O`: -3.99%. Next, `O=c1cccc2n1CC1CC2CN(Cc2cccc(Cl)c2Cl)C1` (stereo not drawn): -44.1%.

As to `Cn1c(C(=O)OCC(=O)NCc2ccco2)cc2sccc21`, the “hERG current change (%, negative = inhibition) at 10uM” value is on record as -10.1%. Next, `Cc1c(Cl)cnc(NC(=O)COC(=O)Cc2coc3ccc4ccccc4c23)c1Cl`: -7.96%; `CCc1noc(C)c1C(=O)N1CCOCC1`: 14.4%; `Cc1cc(C)nc(/N=C(\N)Nc2ccc(OCc3ccccc3)cc2)n1`: -78.2%. Next, `CCOc1ccc(-c2c(C(=O)N/N=C/c3c[nH]c4ccccc34)nnn2-c2nonc2N)cc1`: 23.8%; `Cn1cc(C(=O)NCc2cccnc2)c(=O)c2cc(S(=O)(=O)N3CCCCCC3)ccc21`: 14.1%.

On to `CCOc1ccccc1-c1nn2c(Cc3ccccc3)nnc2s1`, for which the “hERG current change (%, negative = inhibition) at 10uM” value was found to be 4.53%. Next, `CNC(=O)c1csc(Cc2c(Cl)sc3ccc(Cl)cc23)n1`: -2.3%; `Cc1cccc(C)c1N(CC(=O)N1CCN(C)CC1)S(C)(=O)=O`: 16.9%; `CCOC(=O)C(Cc1ccccc1)c1ccnc2ncnn12` (stereo not drawn): 3.86%. In the case of `CCOC(=O)N1CCN(C2=C(NS(=O)(=O)c3ccccc3)C(=O)c3ccccc3C2=O)CC1`, the “hERG current change (%, negative = inhibition) at 10uM” value was -8.45%. Next, `CCOC(=O)c1sc(NC(=O)CSc2nc(C)cc(C)n2)c(C#N)c1C`: 7.09%. As to `O=C(Cc1c[nH]c2ccccc12)N/N=C/c1ccccc1O`, the “hERG current change (%, negative = inhibition) at 10uM” value stood at 0.316%. Next, `CN(Cc1ccccc1)C(=O)CN1C(=O)NC(C)(c2ccc(Cl)cc2)C1=O` (stereo not drawn): 1.93%; `O=C(Nc1ccon1)c1cc2ccccc2oc1=O`: 1.17%; `CCOC(=O)N1CCN(C(=O)COC(=O)C2CCN(S(=O)(=O)c3ccc(C)c(C)c3)CC2)CC1`: -62.1%. Regarding `COc1ccc(CNC(=O)CC(C)S(=O)(=O)c2ccc3c(c2)NC(=O)CO3)cc1` (stereo not drawn), the “hERG current change (%, negative = inhibition) at 10uM” value was 10.1%.

As to `O=C(O)/C=C\C(=O)O.OCCN1CCN(CC/C=C2/c3ccccc3CSc3ccccc32)CC1`, the “hERG current change (%, negative = inhibition) at 10uM” value was -12.2%. `CCOC(=O)C1=C(C)NC(=S)NC1c1ccc(-c2ccc(Cl)cc2)o1` (stereo not drawn): the “hERG current change (%, negative = inhibition) at 10uM” value amounted to 4.06%.

For `COc1cc(CN2CCC(CO)(Cc3cccc(C(F)(F)F)c3)CC2)ccc1F`, the “hERG current change (%, negative = inhibition) at 10uM” value is -68.7%. Next, `COc1ccc(NC(=O)OC(C)C)cc1`: -4.06%; `Cc1cc(C)nc(SCC(=O)Nc2sc3c(c2C#N)CCC(C)C3)n1` (stereo not drawn): 14.7%; `COc1ccccc1NC(=O)Nc1nc(CC(=O)N2CCN(c3ccccc3OC)CC2)cs1`: 10.1%.

For the molecule `CCCc1cc(C(=O)NNC(=S)NCc2ccccc2)cs1`, the “hERG current change (%, negative = inhibition) at 10uM” value was determined as 5%.

`Cc1cccc(-c2nn(-c3ccccc3)cc2C(=O)N2CCN(C3CCS(=O)(=O)C3)CC2)c1` (stereo not drawn): the “hERG current change (%, negative = inhibition) at 10uM” value was -36.6%.

Take `CCOc1ccc(CCNC(=O)CCc2c(C)nc3ncnn3c2C)cc1OCC`: the “hERG current change (%, negative = inhibition) at 10uM” value is on record as -14.9%.
